The source of these data is patent US20240287186A1.

In assay [1] the target is CD3 (target of Table E-1) (UniProt P07766). Put plainly: Biacore (SPR; format not stated). In general terms: In SPR one partner is held on a chip, and binding of the other changes the refractive index at the surface.
Assay [2] shares this target. The experiment in a line: FACS (cells not stated).

B1: Anti-CD3 Fab 7195P (Fab, V domains shown)
VH: EVQLVESGGGLVQPGRSLRLSCAASGFTFADYTMHWVRQAPGKGLEWVSDISWNSGSIAYADSVKGRFTISRDNAKNSLYLQMNSLRTEDTAFYYCAKDSRGYGHYKYLGLDVWGQGTTVTVSS
VL: [in this place about 100 residues]
Take B1: the Kd (in general, the constant that tells how readily two partners part at equilibrium) in assay [1] came out at 0.0383 nM.

B2: Anti-CD3 Fab 7221G (Fab, V domains shown)
VH: EVQLVESGGGLVQPGRSLRLSCAASGFTFDDYSMHWVRQAPGKGLEWVSGISWNSGSKGYADSVKGRFTISRDNAKNSLYLQMNSLRAEDTALYYCAKYGSGYGKFYHYGLDVWGQGTTVTVSS
VL: [in this place about 100 residues]
As to B2, in assay [2], the EC50 (commonly the midpoint of the concentration-response curve) is 13 nM. Moreover, the Kd in assay [1] was 24.9 nM.

B3: Anti-CD3 Fab 7221G20 (Fab, V domains shown)
VH: EVQLVESGGGLVQPGRSLRLSCAASGFTFDDYSMHWVRQAPGKGLEWVSGISWNSGSIGYADSVKGRFTISRDNAKNSLYLQMNSLRAEDTALYYCAKYGSGYGKFYYYGMDVWGQGTTVTVSS
VL: [in this place about 100 residues]
As for B3, in assay [2], the EC50 amounted to 540 nM. The molecule further returned a Kd in assay [1] of 320 nM.
